The test has as its target T1, murine USP18 catalytic core (residues 46-368), His6-tagged (mouse, UniProt Q9WTV6 46-368).
T1 sequence (looked up): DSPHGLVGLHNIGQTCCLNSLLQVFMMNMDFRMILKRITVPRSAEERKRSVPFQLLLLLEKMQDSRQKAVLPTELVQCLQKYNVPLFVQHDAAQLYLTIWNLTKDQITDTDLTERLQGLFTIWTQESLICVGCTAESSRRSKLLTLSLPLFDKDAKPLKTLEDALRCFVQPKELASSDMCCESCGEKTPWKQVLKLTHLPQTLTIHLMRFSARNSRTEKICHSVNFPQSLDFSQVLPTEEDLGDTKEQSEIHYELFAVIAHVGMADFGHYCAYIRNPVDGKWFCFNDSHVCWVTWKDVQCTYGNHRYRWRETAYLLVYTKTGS
Put plainly: covalent adduct formation with an active-site probe.

B1: human ISG15-PA ([…], C78S, propargylamide probe) (natural protein)
chain: not shown
modifications: C-terminal propargylamide (PA)
On to B1, for which the binding result was “binds”.
